Where “and” joins values, the source holds several entries; their conditions need not be identical. Identical values can stand only once. The inconclusive results got no clear call from the source; some entries with a clear call stand among them for comparison. Where a call stands in place of a potency, no number is given. For some of these results: Potencies beside an inconclusive call are fits to weak or partial responses and may not hold up. Calls of active or inactive are those of the source. Unless noted, the call rests on the fitted dose curve; in most records, active means well fitted curve in the direction sought with a large enough effect in the repeat runs; inconclusive means weak or mixed curves; inactive means no such curve, though single readings can be large; an effect the other way counts as inactive or inconclusive.
Legend:
[1] = qHTS assay to identify small molecule agonists of the retinoic acid receptor (RAR) signaling pathway (AID 1159553); settings: C3RL4 RARE luciferase reporter, agonist, 6 h; activation: at 73.3 µM (top of the series) unless noted; further: potency means the concentration at half of the fitted maximal effect
In short: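 In this cell-based screen, 1,000 C3RL4 cells per well were cultured overnight, dosed with test chemicals in DMSO for 6 hr, and assessed for RARE luciferase luminescence.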

[2] = system: estrogen-related receptor alpha (ERRalpha) with PGC-1alpha coactivator, human; assay: qHTS assay to identify small molecule antagonists of the estrogen related receptor signaling pathway with the pleiotropic PPARgamma coactivator (PGC) (AID 1224821; calls by dose curve; further: nearly all actives have a fitted effect of over 50% in size; further: potency means the concentration at half of the fitted maximal effect)
In short: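 Screening used NTP's PGC/ERR cells, dosed via pin tool with compound in DMSO alongside positive and negative controls. After 18 h at 37 C, One-Glo reagent sat 30 min at room temperature before luminescence detection.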

[3] = qHTS assay to identify small molecule antagonists of the estrogen related receptor (ERR) signaling pathway - cell viability counter screen (AID 1224818); further: potency means the concentration at half of the fitted maximal effect
In short: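 Viability of ERR cells, CellTiter-Fluor fluorescence; 17.5 h compound exposure at 37 C, DMSO vehicle; 30 min reagent incubation at 37 C/5% CO2.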

[4] = qHTS assay to identify small molecule antagonists of the estrogen related receptor (ERR) signaling pathway (AID 1224819;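 further: luminescence from an ERR-driven luciferase reporter measured with One-Glo reagent; nearly all actives have a fitted effect of over 50% in size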)
In short: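 Seed ERR cells 2,000/well; rest 6 h at 37 C/5% CO2; pin compounds in DMSO; incubate 18 h at 37 C; add One-Glo; wait 30 min at room temperature; measure luminescence.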

[5] = qHTS assay to identify small molecule antagonists of the estrogen related receptor signaling pathway with the pleiotropic PPARgamma coactivator (PGC) cell viability counter screen (AID 1224822; further: potency means the concentration at half of the fitted maximal effect)
In short: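 17.5 h compound treatment of PGC/ERR cells at 37 C; readout CellTiter-Fluor fluorescence; run alongside the PGC/ERR antagonist screen to flag cytotoxic compounds.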
Tags describe the fitted curve by direction and shape.

SMILES: CCCCNc1ccc(C(=O)OCCN(C)C)cc1
- Potency [1]: inconclusive: 26.6 µM [activator, partial curve]

SMILES: CCOC(=O)c1ccc(N(C)C)cc1
- Potency [1]: active: 15.4 µM

SMILES: OCCOCCN1CCN(C2=Nc3ccccc3Sc3ccccc32)CC1
- Potency [1]: inactive

SMILES: ClC(Cl)Cl
- Potency [1]: inconclusive: 68 µM [activator, partial curve, poor fit]

SMILES: CC1(C)S[C@@H]2[C@H](NC(=O)Cc3ccccc3)C(=O)N2[C@H]1C(=O)O (tested in a mixture with another compound)
- Potency [1]: inactive

SMILES: CC(C)=CCC/C(C)=C\C#N
- Potency [1]: inactive

SMILES: COc1ccc2cc(CCC(C)=O)ccc2c1
- Potency [1]: active: 3.35 µM

SMILES: CN1CCN(CC(=O)N2c3ccccc3C(=O)Nc3cccnc32)CC1
- Potency [2]: inconclusive: 2.66 µM [inhibitor, partial curve, poor fit]

SMILES: COC(=O)C1CC(=O)C(C(=O)OC)CC1=O (centres undefined)
- Potency [1]: inconclusive: 4.76 µM [inhibitor, single point]

SMILES: CCCn1cnc2c1c(=O)n(CCCCC(C)=O)c(=O)n2C
- Potency [2]: inactive

SMILES: CC(=O)OC(C)(C)C1CC=C(C)CC1 (centres undefined)
- Potency [1]: inactive

SMILES: NC(Cc1ccc(Cl)cc1)C(=O)O (centres undefined)
- Potency [3]: inactive
- Potency [4]: inactive

SMILES: CCN(CC)CC(=O)Nc1c(C)cccc1C
- Potency [5]: inactive

SMILES: CNCCC(Oc1ccccc1OC)c1ccccc1 (centres undefined)
- Potency [5]: inactive

SMILES: NC(N)=NCCC[C@H](N)C(=O)O
- Potency [3]: inactive
- Potency [5]: inactive

SMILES: Cc1ccc(S(=O)(=O)NC(=O)NC2CCCC2)cc1
- Potency [1]: inactive

SMILES: Cc1cc(C)cc(O)c1
- Potency [1]: inconclusive: 15.4 µM [activator, single point]

SMILES: Cc1nnc(C(=O)NC(C)(C)c2nc(C(=O)NCc3ccc(F)cc3)c(O)c(=O)n2C)o1
- Potency [1]: active: 33.5 µM

SMILES: N[C@@H](CCC(=O)O)C(=O)O
- Potency [5]: inactive

SMILES: CNC(=S)NC
- activation [1]: inconclusive: -5.69% [phenotype inactive]

SMILES: O=C1N(c2ccccc2)c2ccccc2C1(Cc1ccncc1)Cc1ccncc1
- Potency [2]: inconclusive: 13.3 µM [inhibitor, partial curve]

SMILES: CCCC(=O)OCCC(C)C
- Potency [1]: inactive

SMILES: CC(=O)NS(=O)(=O)c1ccc(N)cc1
- Potency [1]: inconclusive: 33.5 µM [inhibitor]

SMILES: Cc1ccc(C(=O)Nc2ccc(S(=O)(=O)O)c3cc(S(=O)(=O)O)cc(S(=O)(=O)O)c23)cc1NC(=O)c1cccc(NC(=O)Nc2cccc(C(=O)Nc3cc(C(=O)Nc4ccc(S(=O)(=O)O)c5cc(S(=O)(=O)O)cc(S(=O)(=O)O)c45)ccc3C)c2)c1
- Potency [2]: inactive

SMILES: O=C(CCNNC(=O)c1ccncc1)NCc1ccccc1
- Potency [3]: inactive

SMILES: O=C1CCC(C2CCCCC2)CC1
- Potency [1]: inactive

SMILES: CC(=O)c1ccccc1O
- Potency [1]: inactive

SMILES: COc1cc2nc(N3CCN(C(=O)C4COc5ccccc5O4)CC3)nc(N)c2cc1OC (centres undefined)
- Potency [3]: inconclusive: 33.5 µM [cytotoxic, partial curve, poor fit]
- Potency [5]: inconclusive: 21.1 µM [cytotoxic]

SMILES: CCCOCCOCCO
- Potency [1]: inactive

SMILES: CCC(C)(CCC(C)C)C(=O)O (centres undefined)
- activation [1]: inconclusive: -0.576% [phenotype inactive]

SMILES: COc1cc(NC(=O)CC(C)=O)c(OC)cc1Cl
- Potency [1]: inactive

SMILES: CCCCCCOCCO
- Potency [1]: inactive

SMILES: CC[N+](CC)(CC)CCOc1cccc(OCC[N+](CC)(CC)CC)c1OCC[N+](CC)(CC)CC
- Potency [5]: inactive

SMILES: C[C@H]1O[C@H](O[C@H]2[C@H](O)[C@@H](O)[C@@H](O[C@H]3[C@H](O)[C@@H](O)[C@H](O)O[C@@H]3CO)O[C@@H]2CO)[C@H](O)[C@@H](O)[C@@H]1N[C@H]1C=C(CO)[C@@H](O)[C@H](O)[C@H]1O
- Potency [1]: inactive

SMILES: C=CC[N+](C)(C)CC=C
- Potency [1]: inactive

SMILES: C[C@@H](O)[C@H]1C(=O)N2C(C(=O)O)=C(SCCN=CN)C[C@H]12
- Potency [4]: inactive

SMILES: CC[C@H](C)C(=O)O[C@H]1C[C@H](O)C=C2C=C[C@H](C)[C@H](CC[C@@H](O)C[C@@H](O)CC(=O)O)[C@H]21
- Potency [1]: inconclusive: 0.0022 µM [activator, full curve, poor fit]

SMILES: C[C@H]1C[C@H]2[C@@H]3CCC4=CC(=O)C=C[C@]4(C)[C@H]3C(=O)C[C@]2(C)[C@@]1(O)C(=O)CO
- activation [1]: inconclusive: -5.15% [phenotype inactive]

SMILES: CC(=O)OCC(CCn1cnc2cnc(N)nc21)COC(C)=O
- Potency [5]: inconclusive: 23.7 µM [cytotoxic]

SMILES: COCCCOc1ccnc(CS(=O)c2nc3ccccc3[nH]2)c1C (centres undefined)
- Potency [1]: active: 3.84 µM and inconclusive: 11.9 µM [activator, partial curve]

SMILES: NC[C@H]1O[C@H](O[C@H]2[C@H](O)[C@@H](O[C@H]3O[C@H](CO)[C@@H](O)[C@H](N)[C@H]3O)[C@H](N)C[C@@H]2N)[C@H](O)[C@@H](O)[C@@H]1O
- Potency [1]: inconclusive: 2.67 µM [inhibitor, single point]

SMILES: CCN(CC)C(C)CN1c2ccccc2Sc2ccccc21 (centres undefined)
- Potency [5]: inconclusive: 16.8 µM [cytotoxic, partial curve, poor fit]

SMILES: Cc1ccc2c(c1)OCC(=O)CO2
- Potency [1]: inconclusive: 77 µM [activator, partial curve, poor fit]

SMILES: CCN(CC)c1ccc(C(=O)c2ccccc2C(=O)O)c(O)c1
- Potency [1]: active: 10.9 µM and active: 34.4 µM

SMILES: C=CCOC(=O)c1ccc(C(=O)OCC=C)c(C(=O)OCC=C)c1
- Potency [1]: inactive

SMILES: Cc1ccc(-c2ccccc2C#N)cc1
- Potency [1]: inconclusive: 26.6 µM [activator, partial curve, poor fit]
